From the GPR68 mutational scans of Howard et al. (2025)
Scores with a large standard error are left out. The source holds two more conditions with little spread; they are left out. Names with del lack the residues named; names with ins carry added residues between the positions named. For some of these results: The data file names ogerin without a concentration.

B1: GPR68, Q15743 (parent)
chain: MGNITADNSSMSCTIDHTIHQTLAPVVYVTVLVVGFPANCLSLYFGYLQIKARNELGVYLCNLTVADLFYICSLPFWLQYVLQHDNWSHGDLSCQVCGILLYENIYISVGFLCCISVDRYLAVAHPFRFHQFRTLKAAVGVSVVIWAKELLTSIYFLMHEEVIEDENQHRVCFEHYPIQAWQRAINYYRFLVGFLFPICLLLASYQGILRAVRRSHGTQKSRKDQIQRLVLSTVVIFLACFLPYHVLLLVRSVWEASCDFAKGVFNAYHFSLLLTSFNCVADPVLYCFVSETTHRDLARLRGACLAFLTCSRTGRAREAYPLGAPEASGKSGAQGEEPELLTKLHPAFQTPNSPGSGGFPTGRLA

Key:
[1] = variants of: B1; experiment: cAMP reporter score (Enrich2 score, wild type = 0); higher = more signal; HEK293T, FACS bins
[2] = variants of: B1; experiment: surface expression score (Enrich2 score, wild type = 0); higher = more signal; HEK293T, FACS bins

Variant	cAMP reporter score ([1]; pH 5.5)	cAMP reporter score ([1]; pH 6)	cAMP reporter score ([1]; pH 6, modulator: ogerin)	cAMP reporter score ([1]; pH 6.5, modulator: ogerin)	surface expression score [2]
C114_I115insGS	-1.42	-0.842	-1.46	-1.47	-2.69
A122_A124del	-1.2	-0.345	-0.845	-0.597	-2.41
Y106_I107insG	-1.16	-0.696	-0.663		-2.83
V117_D118del	-1.48	-1.47	-1.2	-1.15	-2.14
L121Q	-1.58	-1.54	-1.55	-1.34	-1.35
L121M	-0.582	0.222	-0.657	-0.893	0.124
L121Y	-0.448		-1	-0.574	-2.95
L121H	-1.78		-0.792	-0.638	-2.71
L121D	-0.389	-0.218			-1.56
L121E	-0.154	-1.13	-2.34	-1.74	-1.81
L121C	-0.061	-0.812	-0.774	0.117	-1.83
L121W	-0.292	-1.49	-0.92	-1.77	
L121R	-1.34	-0.53		-1.68	-2.15
L121K	-2.36			-0.844	-2.49
L121I	-0.03		0.187	0.565	-0.237
L121S	-1.17		-1.63	-1.62	
L121P	-0.803	-0.252	-0.828	-0.719	-0.672
L121A	0.963	0.286	-0.753		-1.56
L121F	0.811		0.185		-1.1
L121G	-1.71	-1.28	-1.02	-1.21	-2.49
L121V	-0.177	-0.817	-0.459	-1.09	-1.8
G90Y	-1.41	-0.622	-1.64	-1.35	-0.465
G90V	-1.15	-0.698	-1.03	-1.2	0.145

Variant	cAMP reporter score ([1]; pH 5.5)	cAMP reporter score ([1]; pH 6)	cAMP reporter score ([1]; pH 6, modulator: ogerin)	cAMP reporter score ([1]; pH 6.5, modulator: ogerin)	surface expression score [2]
G90T	-0.05	-0.924	-0.193	-0.683	0.253
G90W	-1.47	-1.01	-1.89	-0.92	0.648
L100_L101insG	-1.07	-0.42	-1.68	-1.28	-3.35
S116_V117insGSG	-1.1	-1.75	-2.08	-1.54	-2.01
V109del	-1.44		-1.84	-1.74	-3.26
D91_L92insGS	-1.01	-1.4	-1.68		-0.934
G90del	-0.912	-0.754	-1.79	-0.877	-0.161
D118_R119del	-1.16			-0.926	-2.84
A122_V123insG	-1.6	-0.195	-1.68	-0.403	-2.25
V96_C97del	-1.54	-0.569	-1.18	-1.22	-1.95
H125G	-2.85	-1.26	-2.08	-0.649	
H125C	1.14	0.094	-0.941	-0.941	-1.5
H125D	-0.4		-0.74	-0.367	
H125F	-0.206		-0.622	-0.494	-0.431
H125I	-0.418		-0.765	-1.22	-1.12
H125K	1.05	-0.02	-0.335	-0.897	-1.5
H125A	-1	-0.802	-1.2		
D118_Y120del	-1.48	-0.609	-1.34	-0.99	-2.3
I99_L100insGS	-0.409	-1.47		-0.427	
C94_Q95insGSG	-1.82	-1.63	-2	-1.14	-1.79
N104_I105del	-2.06	-0.656	-1.44	-1.72	-2.39
V117_R119del	-0.737	-0.644	-0.966	-1.44	-2.45
I99Q	-1.46	-1.13	-1.34		-0.108

Variant	cAMP reporter score ([1]; pH 5.5)	cAMP reporter score ([1]; pH 6)	cAMP reporter score ([1]; pH 6, modulator: ogerin)	cAMP reporter score ([1]; pH 6.5, modulator: ogerin)	surface expression score [2]
I99V	0.912	-0.223	0.96	-0.052	-0.065
I99G	-0.447		-0.641		
I99A	-1.43	-0.983	-0.935	-0.973	-1.47
I99P	-1.74	-1.42	-3.67	-0.437	
I99K	-1.05	-0.223	-1.09		-1.43
I99M	-0.468	-1.41	-1.18	-0.516	-0.073
I99E	-0.937	-1.18			-1.23
I99R	-2.09	-1.09	-1.8	-0.908	-1.82
I99Y	1.55		-0.912	-1.09	0.363
I99H	-0.179	0.111	-1.61	-1.04	-0.806
I99T	-0.709	-0.413	-1.08	-1	-0.239
I99L	0.46	1.98	-0.301	-1.17	0.68
I99N	-1.59	-1.36	-2.37	-0.867	-1.47
I99W	0.173		-0.674	-1.22	
I99D	-1.34	-0.728	-0.516	-1.7	-2.53
R119del	-1.88	-1.17	-1.39	-1.25	-2.93
I107_S108del	-0.549	-0.493	-0.839	-1.04	-2.66
G110D	2.16	1.09			2.12
G110I	0.562	1.01	-0.793	-0.423	-1.46
G110Y	0.256		0.184	0.557	-0.42
G110P	-1.07	0.263		-2.56	-2.95
